# Among all 310,000 compounds or so, about 14,000 (4.5%) showed an effect of 50% or more. Effects have a minus sign here. The list shows a part of the results.
# Target: human ether-à-go-go-related gene (hERG) potassium channel (human, UniProt Q12809)
# Test: primary screen, population patch clamp on CHO cells stably expressing hERG
# 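Note: peak tail current of the secondary pulse compared with the same well before compound.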
# Chain of human ether-à-go-go-related gene (hERG) potassium channel (Q12809 whole entry, looked up): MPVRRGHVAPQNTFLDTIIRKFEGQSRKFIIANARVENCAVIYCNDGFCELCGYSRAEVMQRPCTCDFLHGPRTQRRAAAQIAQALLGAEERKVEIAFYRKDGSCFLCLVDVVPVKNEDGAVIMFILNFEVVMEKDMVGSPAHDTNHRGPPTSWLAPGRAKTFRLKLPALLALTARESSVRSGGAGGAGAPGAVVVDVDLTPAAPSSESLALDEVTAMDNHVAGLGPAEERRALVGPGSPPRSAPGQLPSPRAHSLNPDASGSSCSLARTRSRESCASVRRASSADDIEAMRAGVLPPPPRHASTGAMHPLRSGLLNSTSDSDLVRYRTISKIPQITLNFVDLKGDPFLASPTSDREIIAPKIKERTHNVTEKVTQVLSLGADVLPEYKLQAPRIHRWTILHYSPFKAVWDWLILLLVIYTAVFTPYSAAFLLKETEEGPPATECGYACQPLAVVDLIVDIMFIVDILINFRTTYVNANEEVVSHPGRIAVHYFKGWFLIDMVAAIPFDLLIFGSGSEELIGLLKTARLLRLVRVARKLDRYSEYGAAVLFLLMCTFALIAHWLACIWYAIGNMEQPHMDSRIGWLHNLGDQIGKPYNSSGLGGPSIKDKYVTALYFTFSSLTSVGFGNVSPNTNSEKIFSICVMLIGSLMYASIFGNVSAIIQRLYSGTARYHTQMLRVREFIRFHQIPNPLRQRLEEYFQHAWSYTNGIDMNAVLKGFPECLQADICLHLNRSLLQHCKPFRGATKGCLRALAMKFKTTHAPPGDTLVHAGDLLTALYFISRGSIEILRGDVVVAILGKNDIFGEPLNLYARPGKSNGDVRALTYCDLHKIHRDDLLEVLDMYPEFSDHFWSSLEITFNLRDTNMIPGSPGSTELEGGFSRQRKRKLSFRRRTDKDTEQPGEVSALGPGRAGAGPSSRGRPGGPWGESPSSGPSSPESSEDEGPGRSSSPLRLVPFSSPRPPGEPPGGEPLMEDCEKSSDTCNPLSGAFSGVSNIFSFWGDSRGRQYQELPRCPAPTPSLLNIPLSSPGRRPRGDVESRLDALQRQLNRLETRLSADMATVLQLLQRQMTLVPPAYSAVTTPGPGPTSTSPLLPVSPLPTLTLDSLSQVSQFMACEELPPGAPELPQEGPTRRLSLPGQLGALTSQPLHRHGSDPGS
row,SMILES,"hERG current change (%, negative = inhibition) at 10uM [%]"
1,COc1ccc(-n2nnc3c(SCC(=O)Nc4ccccc4F)ncnc32)cc1,18.9
2,CC1CC(C)CN(CCCNC(=O)COc2cc(=O)n(C)c3ccccc23)C1 (centres unmarked),-8.61
3,Oc1ccc(/C=N/Nc2cc(N3CCCC3)nc(N3CCCC3)n2)cc1O,4.95
4,O=c1nc(NCc2ccco2)sc2ncccc12,7.83
5,Cc1cc(Cl)ccc1NC(=O)CN1CCN(C(=O)c2ccco2)CC1,-73.6
6,CCN(CC)S(=O)(=O)c1ccc(C(=O)NCC(=O)NC2CC2)cc1,2.9
7,COc1ccccc1C(=O)Nc1ccc(-c2nnn(CC(=O)NCc3ccco3)n2)cc1,12
8,Cc1cc(C)c(S(=O)(=O)N2CCOC2CNC(=O)C(=O)NCCc2c[nH]c3ccccc23)c(C)c1 (centres unmarked),-2.75
9,Fc1ccc(/C=N/n2c(-c3cccs3)n[nH]c2=S)cc1,23.7
10,O=C(N/N=C/c1ccc([N+](=O)[O-])cc1)c1cc2ccccc2o1,14.1
11,CCOc1ccc(OCCCCOc2ccccc2C(C)=O)cc1,-17
12,COc1cccc(-c2cc(C(=O)NC3CCCC3)c3ccccc3n2)c1,-36.8
13,COc1ccc(N2CCN(CC(=O)Nc3cccc(S(=O)(=O)N4CCOCC4)c3)CC2)cc1.Cl,-21.7
14,Cc1[nH]c2ccccc2c1C(=O)CSc1nccc(=O)[nH]1,31.2
15,CN(Cc1nc2ccccc2s1)C(=O)c1ccc(F)cc1,-61
16,O=C(O)COc1ccc(/C=N/NC(=O)c2cccc3ccccc23)cc1,15.2
17,Cc1ccccc1-c1nnn(CC(=O)Nc2cccc(S(N)(=O)=O)c2)n1,-14.2
18,Cc1ccccc1OCC(=O)N/N=C/c1ccc2c(c1)OCCO2,-27.1
19,CCCOc1ccc(NC(=O)C(=O)NCCCn2ccnc2)cc1,-37
20,O=C(O)c1cccc(CN2C(=O)S/C(=C/c3ccccc3[N+](=O)[O-])C2=O)c1,3.28
21,Cc1ccc(NC(=O)NCCSc2ccc(C)cc2)cc1,8.7
22,CCOC(=O)NC(=O)CSc1nnnn1-c1ccccc1,3.92
23,COc1ccc(CNC(=S)N/N=C/c2ccncc2)cc1,-10.5

row,SMILES,"hERG current change (%, negative = inhibition) at 10uM [%]"
1,C/C(=N\NC(N)=S)C12CC3CC(CC(C3)C1)C2,12.1
2,CCOC(=O)c1cnc2c(C(=O)OC)cccc2c1NCCN1CCOCC1,-70
3,O=C(CN1C(=O)/C(=C/c2c(F)cccc2Cl)Oc2ccccc21)NCc1ccco1,10.9
4,Cc1cc(/C=N/NC(=O)C(O)(c2ccccc2)c2ccccc2)c(C)n1-c1ccc(C(=O)O)cc1,15.7
5,O=[N+]([O-])c1ccc(/C=N\NS(=O)(=O)c2ccc(F)cc2)o1,0.171
6,Cc1c(N2C(=O)CS/C2=N\N=C\c2ccc(Cl)cc2)c(=O)n(-c2ccccc2)n1C,-32.2
7,O=C(O)CC(NC(=O)C(c1ccccc1)c1ccccc1)c1cccc([N+](=O)[O-])c1 (centres unmarked),2.05
8,CCOC(=O)c1c(N)sc(C(=O)N(C)C)c1CN1CCOCC1,-1.37
9,O=C(Nc1ccccc1Cl)c1cccc(COc2cc(Cl)ccc2Cl)c1,5.62
10,CCOC(=O)c1[nH]c2ccc(OCC)cc2c1NC(=O)CN1CCN(c2ccccc2)CC1,17.9
11,Cn1c(=O)c2[nH]c(COc3ccc(C(C)(C)C)cc3)nc2n(C)c1=O,-55.1
12,O=C(Nc1cccc(Cl)c1)Nc1ccc2nccnc2c1,19.1
13,Cc1nn(C(=O)Cn2ccc([N+](=O)[O-])n2)c(C)c1Cl,10.3
14,O=C(NCc1ccco1)C1CCCN1S(=O)(=O)c1ccc2ccccc2c1 (centres unmarked),-5.75
15,COc1cc(OC)cc(C(=O)NCc2n[nH]c(=S)n2-c2ccccc2OC)c1,23.3
16,CCOC(=O)CNC(=O)c1sc(NC(=O)/C=C/c2ccccc2)nc1C,7.9
17,COc1cccc(OC)c1C(=O)OCC(=O)N1CC(C)CC(C)C1 (centres unmarked),14.8
18,CCOC(=O)c1cnc2c(C(F)(F)F)cccc2c1NCCCN1CCOCC1,-27.8
19,Cc1cccc(NC(=S)NC(NC(=O)c2ccco2)C(Cl)(Cl)Cl)c1 (centres unmarked),1.39
20,CC(C)CC1NC(=O)N(CC(=O)N2CCN(S(=O)(=O)c3ccc(Cl)cc3)CC2)C1=O (centres unmarked),-40.9
21,CCCNC(=S)NNC(=O)c1cc(-c2cccnc2)nc2ccccc12,15.7
22,CCCOc1ccc(C(=O)Nc2cccnc2)cc1,3.01
23,CC1CCC2(CC1)NC(=S)N(c1ccccc1)N2 (centres unmarked),16.9

row,SMILES,"hERG current change (%, negative = inhibition) at 10uM [%]"
1,COc1ccc(C(=O)C2CCCN(C(=O)c3cccnc3OC)C2)cc1F (centres unmarked),-4.56
2,CC1=NN(c2ccccc2)C(=O)C1N=Nc1ccc(C)cc1 (centres unmarked),12.2
3,Nc1nnn(CC(=O)N/N=C/c2ccco2)n1,13.1
4,CCc1cc2c(=O)c(-c3nc4ccccc4n3C)c(C(C)C)oc2c(CN2CCN(C)CC2)c1O,-13.4
5,Nc1nnc(N2CCCCC2)s1,-7.04
6,Cc1c(Cc2ccc3c(c2)OCO3)sc(NC(=O)c2ccccc2)c1C(N)=O,5.34
7,Cc1cc(S(=O)(=O)N2CCCC2)ccc1OCC(=O)N1CCCCC1,-17.9
8,O=C(CCCCCCCC(=O)c1ccccc1)c1ccccc1,23.2
9,CCCOC1OC(=O)c2c1ccc(OC)c2OC (centres unmarked),7.64
10,COc1ccc(/C=C(\NC(=O)c2ccccc2)C(=O)NC2CCS(=O)(=O)C2)cc1 (centres unmarked),-9.78
11,COc1ccc(CNC(=O)COC(=O)CCCOc2ccc(Cl)cc2Cl)cc1OC,1.57
12,CCCCn1c(CN2CCN(C(=O)c3ccco3)CC2)nc2c1c(=O)n(C)c(=O)n2C,-34.1
13,Cc1ccc2[nH]c(=O)c(CN(Cc3cccnc3)C(=O)c3ccncc3)cc2c1,-11.8
14,Cn1c(O)c(/C=C2/C=CC=N2)c(=O)[nH]c1=O,1.78
15,CN(c1ccccc1C(=O)NC1CCCCC1)S(=O)(=O)c1ccccc1,7.58
16,OCCCC1CCCN(Cc2cn[nH]c2-c2ccc(F)cc2F)C1 (centres unmarked),-8.02
17,Cc1cc(C)n2nc(C(=O)NC(c3ccccc3)c3ccccc3)nc2n1,-13.4
18,COc1cc(OC)cc(C(=O)NC2CCCCCCC2)c1,2.13
19,O=C(O)COn1c(-c2ccccc2)nc2ccc([N+](=O)[O-])cc21,11.3
20,C=CCC(C#Cc1ccc(C)cc1)N(CC)CC (centres unmarked),-17.3
21,Cc1ccc(CNC(=O)c2ccc(N3CCC4(CC3)CC(c3ccccc3)=NO4)c(N)c2)cc1,11.8
22,COc1ccc(-n2nnnc2SCC(=O)Nc2ccc3c(c2)OCCO3)c(OC)c1,9.4
23,O=C(O)c1cccc(NC(=O)c2cn(-c3ccccc3)nc2-c2cc3ccccc3o2)c1,1.49

row,SMILES,"hERG current change (%, negative = inhibition) at 10uM [%]"
1,O=C(Nc1ccccc1)c1oc2ccccc2c1NC(=O)C1CC1,2.8
2,COc1ccc(C2=NS(=O)(=O)N(C)C(C(=O)NCc3ccccn3)=C2)cc1,-33.9
3,CCCC(=O)Nc1ccc(NC(=S)NC(=O)c2cccs2)cc1,8.56
4,CC(=O)N1CC2(NC(=O)c3ccccc3N2)c2ccccc21 (centres unmarked),5.27
5,Cc1noc2ncnc(Oc3ccc(Cl)cc3Cl)c12,6.58
6,COc1cccc(NC(=O)COc2ccccc2C(N)=O)c1,-1.66
7,CCOC(=O)Nc1cccc(Nc2ccccc2)c1,-74.8
8,O=C1c2ccccc2C(=O)N1OS(=O)(=O)c1ccc(F)cc1,21.7
9,Cn1nc(C(=O)NCc2ccc(F)cc2)c2ccccc2c1=O,-12.8
10,O=C(NCCOc1ccccc1Cl)c1cc(F)c(F)cc1Cl,-17.9
11,Cc1cc(C(=O)OCC(=O)N2c3ccccc3NC(=O)C2(C)C)c(C)n1-c1ccccc1,14
12,CCCNC(=O)Cn1cnc2sc(C(=O)N3CCN(c4ccc(F)cc4)CC3)c(C)c2c1=O,-32.1
13,CCn1c2ccc(F)cc2c2nnc(NN)nc21,-9.93
14,Nc1nc(NCC2CCCO2)nc(Nc2ccc(Cl)cc2)c1[N+](=O)[O-] (centres unmarked),12.6
15,CCOC(=O)C1ON2CCCCC2C1(O)C(F)(F)F (centres unmarked),19.7
16,O=C(O)CCSc1ccc([N+](=O)[O-])cc1[N+](=O)[O-],22.7
17,Oc1ccc(-c2[nH]ncc2-c2cccc3cccnc23)c(O)c1,32.1
18,CCOC(=O)Cn1cnc2c(C#N)c3n(c2c1=O)CCCCC3,-9.52
19,O=C(COc1ccccc1)N(CCc1ccccc1)c1nc(-c2ccc(F)cc2)cs1,6.69
20,Cc1cccc(C(=O)NNc2ncnc3c2cnn3C)c1,11.2
